# The campaign covered roughly 150,000 compounds. About 540 (0.36%) showed an effect of 50% or more. Some of the results follow.
# Test system: Plasmodium falciparum
# Experiment: Primary screen in NF54 nanoGlo assay, in single point, at 2uM, 72h; a lower Z score goes with more inhibition
# Assay type: functional, Erythrocyte
# Settings: timepoint 72 hour
Compound,% Inhibition,Z score
O=C(c1ccn(C(F)F)n1)N1C[C@@H]2CC[C@H]1CN(C1CCOCC1)C2,0%,-0.03
CCOc1ccc(C(=O)N2CCN(c3cccnc3)C(=O)C2)cn1,14%,-1.73
CN(Cc1ccccc1)C(=O)c1cn2c(n1)CCCC2,-5%,0.82
CCN(CC)C(=O)c1ccc(-c2ccncc2)o1,1%,-0.18
Cc1noc(C)c1S(=O)(=O)NC[C@H](C)Oc1cccc(CN(C)Cc2ccsc2)c1,-14%,1.63
CC(C)COC[C@@H](O)CN1CCCN(c2ccc(NC(=O)c3ccc(F)cc3F)cn2)CC1,-5%,0.96
Cc1ccnc(CC(=O)NC[C@@H](C(C)C)N(C)C)c1,2%,-0.26
COCCN(CC(=O)N(Cc1ccc(C)cc1)C1CCN(C(=O)Cc2ccc(OC)cc2)CC1)S(=O)(=O)c1ccccc1,-3%,0.59
CCc1csc(CNC(=O)c2ccc(N[C@@H](C)c3nc(C)no3)nc2)n1,-4%,0.82
NC(=O)Cc1nc(Cc2n[nH]c3ccccc23)n(CCO)n1,-5%,0.84
CC(C)=CCO[C@H]1CCOC[C@H]1NC(=O)Cc1cc(F)ccc1F,-17%,1.6
O=S1(=O)C[C@H](N2CCN(c3ccccc3F)CC2)[C@@H](S(=O)(=O)c2cccs2)C1,-11%,1.33
COc1ccc(CC(=O)N2CCC3(CC2)CN(C(C)=O)C[C@@H]3CO)cc1Cl,-12%,2.27
COC(=O)[C@H](C)NC(=O)NC1CCCCC1,13%,-1.5
O=S(=O)(Cc1ccccc1F)N1CCC[C@H](Oc2cnccn2)C1,-12%,2.02
CCC1(CC)C(NCc2nnc3n2CCCCC3)CC1OC (stereo unspecified),0%,-0.08
COCCC(=O)N1CCCCN(C)C(=O)[C@H](C)NC(=O)COc2ccc(cc2OC)C(=O)NCCC1,2%,-0.24
COc1ccc(CN(CCC(C)C)C[C@H](O)COC(C)C)cc1OC,-3%,0.37
CCn1nccc1S(=O)(=O)NCC1(CN2CCOCC2)CC1,-2%,0.37
Cn1c(=O)n(C2CCN(C(=O)c3cccs3)CC2)c2ncncc21,-16%,2.63
Cc1noc(C)c1C(=O)Nc1ccc2sncc2c1,-14%,1.56
Cc1cnc2ccccc2c1NC(=O)COc1cccc(Cl)c1,-4%,0.58

Compound,% Inhibition,Z score
CCc1noc(C)c1C(=O)Nc1ncc(Cc2ccccc2)s1,-3%,0.42
CCc1cc(C(=O)N[C@H]2CC(C)(C)Cc3c2cnn3-c2ccc(OC)cc2)[nH]n1,5%,-0.75
c1ccc(Cn2ccnc2CCNc2ncccn2)cc1,33%,-3.73
Cc1ccc(CN2CCCn3nc(CNC(=O)C4CCC4)cc3C2)c(F)c1,4%,-0.37
CC(C)(C)C(=O)NCCc1ccc(F)cc1,-7%,1.07
CCc1nsc(N2CCC[C@H](CO)C2)n1,-12%,1.59
COc1cccc([C@@H]2CCCCN2C(=O)CCc2ccccn2)c1,3%,-0.62
CCC(=O)C1C(=O)CC(C)(C)C(c2cc(C)no2)C1=O (stereo unspecified),-11%,2.1
Cn1ncc2c(=O)n(Cc3cc(Cl)c4c(c3)OCCO4)cnc21,3%,-0.37
Cc1cc(=O)n(CC(=O)Nc2ccc(C)c(F)c2)c(N(C)Cc2ccccc2)n1,-16%,1.42
O=C(Nc1nccs1)c1c[nH]nc1-c1ccccc1,-1%,0.18
NC(=O)c1cc(Cl)ccc1OCC(=O)Nc1ccnn1C1CCCC1,-2%,0.2
CNC(=O)c1ccc(CN2CC(c3ccccc3)(c3ccccc3)CCC2=O)o1,-23%,4.54
CC(C)N(Cc1nnsc1Cl)c1ccc(F)cc1,-11%,0.91
COc1ccc(CN(C(=O)[C@@H]2CCCO2)C2CCCC2)cc1OC(C)C,-6%,1.07
Cn1c(=O)[nH]c(=O)c2[nH]c(CCC(=O)NC3c4ccccc4CC3O)nc21 (stereo unspecified),-6%,0.99
COCC(C)(C)c1noc(-c2ccc(C(F)(F)F)c(=O)[nH]2)n1,-6%,0.62
CCC(CC)C(=O)N(CCN(C)C)Cc1cc(NC(=O)NC(C)C)ccc1N(C)C,5%,-0.6
O=C(Nc1nccc2cc[nH]c12)C1CC[C@@H]2C[C@@H]2CC1 (stereo partly specified),-5%,1.03
COc1ccc2c(c1)N(S(=O)(=O)Cc1ccc(F)cc1F)CCC2,-4%,0.5
Cc1cccc2c1O[C@H](C(=O)Nc1cc(C3CC3)ccn1)C2,-2%,0.37

# Source: ChEMBL document CHEMBL4888484, “Replenishing the malaria drug discovery pipeline: Screening and hit evaluation of the MMV Hit Generation Library 1 (HGL1) against asexual blood stage Plasmodium falciparum ,using a nano luciferase reporter read-out” (2022)
